# Screen size: about 420,000 compounds; about 50,000 (12%) were called active. Inconclusive results, whose numbers are uncertain, are shown with a selection of clear calls. Calls follow the shape of the dose curve; as a rule, active = well fitted inhibition curve with a large enough effect; inconclusive = small, poorly fitted or top-dose-only effect; inactive = flat fitted curve, though single readings scatter. No potency is given beside an inconclusive call; the fits are too rough.
# Test: qHTS for Inhibitors of human tyrosyl-DNA phosphodiesterase 1 (TDP1): qHTS in cells in presence of CPT; also: nearly all actives have a fitted effect of over 55% in size
# Conditions: chicken DT40 Tdp1-/-;hTDP1 cells + 20 nM CPT, ATP luminescence, 48 h; activity change, negative = growth inhibition: at 46.2 µM (top of the series) unless noted
# Method in brief: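 Chicken DT40 Tdp1-/- cells complemented with human TDP1, 400 cells/well, exposed to compounds plus 20 nM camptothecin for at least 48 h at 37 C; viability read as ATP content by CellTiter-Glo luminescence.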
# % is scaled to controls: 0 for no effect and ±100 for the full control effect; potency is read from the fitted curve at half-maximal effect; tags tell the direction and shape of the fitted curve.
Structure (SMILES),Potency,"activity change, negative = growth inhibition"
Cc1ccc(NC(=O)c2ccc(F)c(S(=O)(=O)NCCc3ccccc3)c2)cc1F,active: 20.6 µM,–
Cc1oc(-c2cccc(Br)c2)nc1CN1CCC(C(=O)NCc2ccccc2)CC1,active: 18.4 µM,–
O=C(Nc1ccccc1)C1C(c2ccccc2)C1(Cl)Cl (stereo unspecified),–,inconclusive: -32% [inhibitor]
CC(C)Oc1cccc(C(=O)C2CCCN(Cc3ccc(Oc4ncccn4)cc3)C2)c1 (stereo unspecified),–,inactive: 4.66%
CC(C)CN(C(=O)COc1ccc([N+](=O)[O-])cc1)c1c(N)n(CC(C)C)c(=O)[nH]c1=O,–,inactive: -9.8%
CC(=O)Oc1ccccc1N(C(C)=O)S(=O)(=O)c1ccc2ccccc2c1,–,inactive: -14.6%
CC(=O)Nc1ccc(NC(=O)CSc2nnc(NC(=O)c3cccc(F)c3)s2)cc1,–,inactive: 13.9%
COc1ccc(NCC(=O)Nc2ccc(C#N)cc2)cc1Cl,"inconclusive [inhibitor, single point]",–
O=S(=O)(c1ccc(Cl)c(NC(=S)Nc2cccc(O)c2)c1)N1CCOCC1,–,inactive: 8.09%
CCn1ccnc1CN1CCc2c([nH]c3ccccc23)C1C1CCCCC1 (stereo unspecified),"inconclusive [inhibitor, single point]",–
Cc1nc(-c2ccccc2)sc1-c1ccc(SCC(=O)Nc2ccccc2)nn1,"inconclusive [inhibitor, single point]",–
CN(CC(=O)Nc1cccc(F)c1)C(=O)CN1C(=O)NC2(CCCCC2)C1=O,"inconclusive [inhibitor, partial curve, poor fit]",–
O=C(NNC(=O)c1n[nH]c2ccccc12)c1ccccc1,–,inactive: -1.57%
COc1cccc(CNC(=O)Cc2c(C)c3cc4c(C)coc4cc3oc2=O)c1,"inconclusive [inhibitor, single point]",–
Cc1ccc2nc(NC(=O)C3CCCN(S(=O)(=O)c4cccc5nsnc45)C3)sc2c1 (stereo unspecified),"inconclusive [inhibitor, single point]",–
CCCn1nnc(NC(=S)NC(=O)Cc2ccccc2)n1,"inconclusive [inhibitor, single point]",–
O=C(CSc1nc(-c2ccccc2)cc(C(F)(F)F)n1)NCc1cccs1,–,inactive: -17.5%
CC(=O)c1ccc2c3c(cccc13)C(=O)N(c1c(C)nn(C)c1C)C2=O,–,inactive: -17.7%
CC1=C(C(=O)OCCCBr)C(c2ccc3c(c2)OCO3)NC(=O)N1 (stereo unspecified),active: 25.9 µM,–
CCC(C)C(NC(=O)C1CCC(C)CC1)C(=O)NCCCN1CCCCC1CC (stereo unspecified),–,inactive: 14%
CC(C)CN(C(=O)COC(=O)/C=C/c1ccc(Cl)c(Cl)c1)c1c(N)n(Cc2ccccc2)c(=O)[nH]c1=O,"inconclusive [inhibitor, single point]",–
O=C(N/N=C/c1ccc(Sc2nc3ccccc3[nH]2)o1)c1ccncc1,"inconclusive [inhibitor, single point]",–
COc1cccc(NC(=O)c2csc3c2CCCCC3)c1,active: 20.6 µM,–
COc1ccc(N2C(=O)c3cccc4c(N(C)CCO)ccc(c34)C2=O)cc1,"inconclusive [inhibitor, single point]",–

Structure (SMILES),Potency,"activity change, negative = growth inhibition"
Cc1nn(C)c(C(=O)Nc2c(C)nn(Cc3c(F)c(F)c(F)c(F)c3F)c2C)c1Br,active: 8.2 µM,–
CC(C)Cn1nc(NC(=O)C(C)(C)C)c2cc3ccccc3nc21,"inconclusive [inhibitor, partial curve]",–
CCCCn1c(N)c(N(CCC(C)C)C(=O)c2ccc(-c3ccc([N+](=O)[O-])cc3)o2)c(=O)[nH]c1=O,"inconclusive [inhibitor, single point]",–
Cn1c(NCCN2CCCC2)nc2cc(-c3cccc(C(F)(F)F)c3)sc2c1=O,"inconclusive [inhibitor, single point]",–
CC1CCN(C(=O)CSc2nc3c(cnn3-c3ccc(Cl)cc3)c(=O)[nH]2)CC1,"inconclusive [inhibitor, full curve, poor fit]",–
CCc1ccc(NC(=O)N2CCN(c3nnc(C)c4c(C)n(-c5ccc(Cl)cc5)nc34)CC2)cc1,"inconclusive [inhibitor, single point]",–
COc1ccccc1CNC(=O)CCS(=O)(=O)Cc1ccc(C)cc1,"inconclusive [inhibitor, single point]",–
O=C(c1[nH]c(C(F)(F)F)nc1-c1ccccc1)N1CCN(c2ncc(C(F)(F)F)cc2Cl)CC1,"inconclusive [inhibitor, single point]",–
COC(=O)C1=C(C(=O)OC)[C@]2([C@@H]3C/C=C\CN[C@@H](Cc4ccccc4)C(=O)N3Cc3ccccc3)C=C[C@H]1O2,active: 25.1 µM,–
Cc1cccc(NC(=O)NCc2ccccn2)c1,–,inactive: 5.38%
COc1ccc(N2CCN(C(=O)C3CCN(S(=O)(=O)c4ccc5c(c4)oc(=O)n5C)CC3)CC2)cc1,"inconclusive [inhibitor, single point]",–
Cc1ccc(NC(=O)C2=C(c3ccccc3)S(=O)(=O)CCS2(=O)=O)cc1,active: 0.461 µM,–
c1ccc(Nc2c(-c3ccccc3)nc3ncccn23)cc1,"inconclusive [inhibitor, full curve, poor fit]",–
CCOc1ccc(C(=O)C[n+]2cccc3cc(C)ccc32)cc1,"inconclusive [inhibitor, single point]",–
COc1ccc(C(=O)NC(Nc2ccc(C)cc2)C(Cl)(Cl)Cl)cc1 (stereo unspecified),active: 20.6 µM,–
COC(=O)c1cc(NC(=O)c2cccc(F)c2)cc(C(=O)OC)c1,–,inactive: 8.96%
COc1ccc(-c2noc(CCCC(=O)N3CCOCC3)n2)cc1,"inconclusive [inhibitor, single point]",–
c1ccc(OCCCCn2cnc3ccccc32)cc1,"inconclusive [inhibitor, partial curve, poor fit]",–
C=CC[C@H](CC(=O)OC(C)(C)C)C(=O)OC[C@@H]1CCCN1C(=O)[C@@H](CC=C)CC(=O)NCCO,"inconclusive [inhibitor, single point]",–
Cc1ccc(C(=O)N2CCC(Cc3ccccc3)CC2)cc1[N+](=O)[O-],"inconclusive [inhibitor, single point]",–
CCc1cc2cc(C(=O)N3CCN(Cc4ccccc4)CC3)sc2s1,"inconclusive [inhibitor, single point]",–
Cc1ccc(CNCc2ccc3c(c2)n(C)c(=O)n3C)cc1,–,inactive: -14.9%
COCC(=O)N(CCc1ccc(OC)cc1)Cc1nc2ccccc2c(=O)[nH]1,"inconclusive [inhibitor, single point]",–
CCCc1cc(NCc2ccccn2)n2nc(C)c(-c3ccccc3)c2n1,active: 0.58 µM,–

Structure (SMILES),Potency,"activity change, negative = growth inhibition"
O=C(CCNS(=O)(=O)c1ccc(Br)s1)Nc1ccc(Br)cc1,"inconclusive [inhibitor, single point]",–
Cc1ccc(C(=O)Nc2ccccc2N2CCCCC2)cc1,–,inactive: -11.1%
CC(C)(C)c1ccc(C(=O)N/C(=C/c2cccs2)C(=O)NCc2ccco2)cc1,"inconclusive [inhibitor, single point]",–
CCN(C(=O)COC(=O)c1cccnc1Nc1ccccc1F)C1CCS(=O)(=O)C1 (stereo unspecified),–,inactive: 15.2%
COc1cc(NS(=O)(=O)c2ccc(NC(=O)COc3ccc(Cl)cc3Cl)cc2)nc(OC)n1,–,inactive: -3.4%
Cc1noc(C)c1COc1ccccc1C(=O)N1CCN(S(=O)(=O)c2ccc(C(C)C)cc2)CC1,"inconclusive [inhibitor, single point]",–
N#CC1(Nc2ccc(C(=O)O)cc2)CCCC1,–,inconclusive: -31.1% [inhibitor]
COC(=O)c1c(C(=O)OC)c2cc(C(=O)c3ccccc3)ccn2c1Cl,–,inactive: -14.3%
COc1ccc2c(c1)c(=O)c(S(=O)(=O)c1ccc(F)cc1)cn2CC(=O)Nc1ccc(C)cc1C,–,inactive: 12.7%
CCn1c(C)nc2cc(C(=O)NNC(=S)Nc3ccccc3)ccc21,–,inactive: -5.71%
CCn1c(CC(=O)Nc2ccccc2F)nnc1SCC(=O)NC1=NCCS1,"inconclusive [inhibitor, single point]",–
O=C(NCc1ccccc1Cl)C(=O)NCC(c1ccc2c(c1)OCO2)N1CCOCC1 (stereo unspecified),"inconclusive [inhibitor, single point]",–
CC(C)CCC(CC(C)O)C(=O)NNC(=S)Nc1ccccc1 (stereo unspecified),–,inactive: 9.09%
COc1cc2c(cc1OC)[C@@H](NC(=O)CCc1ccccc1)[C@H](O)C2,"inconclusive [inhibitor, partial curve, poor fit]",–
COc1cccc(CN2C(=NC(=O)CCC3CCCC3)SC3CS(=O)(=O)CC32)c1 (stereo unspecified),"inconclusive [inhibitor, single point]",–
O=C(COC(=O)CCC(=O)c1cccs1)NC(=O)c1ccc(OC(F)F)cc1,–,inactive: -0.0422%
O=C(O)c1cc(S(=O)(=O)N2CCCCC2)ccc1N1CCOCC1,–,inactive: -1.21%
COc1ccc(NC(=O)CC2Sc3ncnn3C2=O)cc1 (stereo unspecified),active: 5.17 µM,–
CCc1ccc(C(CNC(=O)c2ccc3c(=O)n(-c4ccccc4F)c(=S)[nH]c3c2)N(C)C)cc1 (stereo unspecified),"inconclusive [inhibitor, single point]",–
Cc1cc(C)n(-c2nnc(C)n2/N=C/c2ccccc2OCc2ccccc2Cl)n1,"inconclusive [inhibitor, single point]",–
CCOc1ccc(NC(=O)CSc2nc(-c3ccccc3)c3cc(OCC)ccc3n2)cc1,active: 14.6 µM,–
CCOc1ccccc1N(CC)C(=O)Cn1ncc2c1-c1ccccc1OC2,active: 20.6 µM,–
COc1ccc(NC(=O)c2ccc3nc(C)sc3c2)cc1,–,inactive: -6.39%

# Source: PubChem BioAssay AID686979 (National Center for Advancing Translational Sciences (NCATS), 2013)
